# Reference: the supplement of paper PMC11348887
# Where a name gives a salt, the structure may show the parent alone. Some of the results follow. Cut-off read from the data, not from the text of the source: active = -2 or less and inactive = the rest. Single values are uncertain, as repeats are few or missing.
# Test system: hPSC-derived cortical neurons (WA09)
# Test: nuclei number (viability) z-score; higher = more surviving cells
# Details: 5 µM; treatment: days 7-14 after plating, readout day 21
# 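Note: nuclei counted from DAPI counterstain by automated high-content image analysis, four fields per well at ×20 in 384-well plates, with sequential b-score then z-score normalization.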
row,SMILES,nuclei number (z-score)
1,O=C(N/N=C/c1ccc(O)c(O)c1)c1cc2ccccc2cc1O [Dynasore],inactive: 0.874
2,C=CC[C@@H]1/C=C(\C)C[C@H](C)C[C@H](OC)[C@H]2O[C@@](O)(C(=O)C(=O)N3CCCC[C@H]3C(=O)O[C@H](/C(C)=C/[C@@H]3CC[C@@H](O)[C@H](OC)C3)[C@H](C)[C@@H](O)CC1=O)[C@H](C)C[C@@H]2OC [Tacrolimus (FK506)],inactive: -0.266
3,CN1C2CCCC1CC(NC(=O)c1nn(C)c3ccccc13)C2 (stereo not drawn) [Granisetron HCl],inactive: -1.55
4,CC(=O)O/N=C1\C(=O)N(Cc2cc(Cl)ccc2Cl)c2ccc(Cl)cc21,inactive: -0.264
5,Cc1ncc([N+](=O)[O-])n1CCO [Metronidazole],inactive: 4.88
6,O=C(Cc1cccc(OC(F)(F)F)c1)Nc1ccc(CCCCc2nnc(NC(=O)Cc3ccccn3)s2)nn1,inactive: -0.58
7,CCN(CC)CC#CCOC(=O)C(O)(c1ccccc1)C1CCCCC1 (stereo not drawn) [Oxybutynin chloride],inactive: -0.503
8,CCN(CC)CC#CCOC(=O)C(O)(c1ccccc1)C1CCCCC1 (stereo not drawn) [Oxybutynin],inactive: -0.906
9,CCN(Cc1ccncc1)C(=O)C(CO)c1ccccc1 (stereo not drawn) [Tropicamide],inactive: 0.442
10,CC(C)C(=O)OCC(=O)[C@@]12O[C@H](C3CCCCC3)O[C@@H]1C[C@H]1[C@@H]3CCC4=CC(=O)C=C[C@]4(C)[C@H]3[C@@H](O)C[C@@]12C [Ciclesonide],inactive: -0.44
11,Nc1nc(Cl)nc2c1ncn2[C@@H]1O[C@H](CO)[C@@H](O)[C@@H]1F [Clofarabine],active: -4.1
12,COc1ccc(-c2cc(=O)c3c(O)cc(O)cc3o2)cc1O [Diosmetin],inactive: 7
13,CN1CC[C@H](c2c(O)cc(O)c3c(=O)cc(-c4ccccc4Cl)oc23)[C@H](O)C1 [Flavopiridol HCl],active: -7.76
14,CN1CC[C@H](c2c(O)cc(O)c3c(=O)cc(-c4ccccc4Cl)oc23)[C@H](O)C1 [Flavopiridol (Alvocidib)],active: -6.22
15,CN(C)Cc1c(C(=O)NCCOc2ccc(C(=O)NO)cc2)oc2ccccc12,active: -3.16
16,CC(C)NCC(O)COc1ccc(COCCOC(C)C)cc1 (stereo not drawn) [Bisoprolol fumarate],inactive: 3.09
17,NC(=O)c1cnc2[nH]ccc2c1NC1[C@@H]2CC3C[C@H]1CC(O)(C3)C2 (stereo partly drawn),inactive: 0.0414
18,O=C1CN2Cc3c(ccc(Cl)c3Cl)N=C2N1 [Anagrelide HCl],inactive: 1.27
19,CC(=O)N1c2ccc(-c3ccc(C(=O)O)cc3)cc2[C@H](Nc2ccc(Cl)cc2)C[C@@H]1C,active: -2.76
20,CC[C@H]1OC(=O)[C@H](C)[C@@H](O[C@H]2C[C@@](C)(OC)[C@@H](O)[C@H](C)O2)[C@H](C)[C@@H](O[C@@H]2O[C@H](C)C[C@H](N(C)C)[C@H]2O)[C@](C)(O)C[C@@H](C)/C(=N\OCOCCOC)[C@H](C)[C@@H](O)[C@]1(C)O [Roxithromycin],inactive: 0.276
21,Nc1nc(F)nc2c1ncn2[C@@H]1O[C@H](CO)[C@@H](O)[C@@H]1O [Fludarabine],inactive: -1.95
22,O=c1[nH]c(=O)n(C2CC(O)C(CO)O2)cc1Br (stereo not drawn) [Bromodeoxyuridine (BrdU)],inactive: 1.11
23,O=C(NCCS(=O)(=O)c1ccc(C(F)(F)F)cn1)c1ccc(Cl)cc1,inactive: -0.178

row,SMILES,nuclei number (z-score)
1,C=C1CC[C@H](O)C/C1=C/C=C1\CCC[C@]2(C)[C@@H]([C@H](C)CCCC(C)(C)O)CC[C@@H]12 [Calcifediol],inactive: -0.468
2,CC(C)CC(=O)Nc1n[nH]c2c1CN(C(=O)C1CCN(C)CC1)C2(C)C,active: -4.58
3,Nc1nc(=O)c2nc(CNc3ccc(C(=O)N[C@@H](CCC(=O)O)C(=O)O)cc3)cnc2[nH]1 [Folic acid],inactive: -0.199
4,NC(CO)(CO)CO [Trometamol],inactive: 0.657
5,O=C(CCCCCCNC(=O)c1cnc(N(c2ccccc2)c2ccccc2)nc1)NO [Rocilinostat (ACY-1215)],active: -3.86
6,O=c1ncccn1[C@@H]1O[C@H](CO)[C@@H](O)[C@H]1O [Zebularine],inactive: -0.36
7,NC(=O)N1c2ccccc2C=Cc2ccccc21 [Carbamazepine],inactive: 0.307
8,CC(C)n1nc(-c2cc3cc(O)ccc3[nH]2)c2c(N)ncnc21,inactive: -0.989
9,NCCC[C@H](N)C(=O)O [L-Ornithine],inactive: 2.09
10,Clc1ccc(C(Cn2ccnc2)OCc2c(Cl)cccc2Cl)c(Cl)c1 (stereo not drawn) [Isoconazole nitrate],inactive: -0.483
11,CNc1nc(Nc2cnn([C@H]3CCN(C4COC4)C[C@@H]3F)c2Cl)ncc1C(F)(F)F,inactive: 0.41
12,O=c1cc(-c2ccc(O)cc2)oc2cc(O)cc(O)c12 [Apigenin],inactive: 3.49
13,CO[C@H]1/C=C/O[C@@]2(C)Oc3c(C)c(O)c4c(c3C2=O)C2=NC3(CCN(CC(C)C)CC3)NC2=C(NC(=O)/C(C)=C\C=C\[C@H](C)[C@H](O)[C@@H](C)[C@@H](O)[C@@H](C)[C@H](OC(C)=O)[C@@H]1C)C4=O [Rifabutin],inactive: 0.544
14,CC(=O)OCC(COC(C)=O)OC(C)=O [Triacetin],inactive: -0.55
15,C[C@@H](N)[C@H]1CC[C@H](C(=O)Nc2ccncc2)CC1,inactive: 2.77
16,c1cnc2cc3c(cc2n1)[C@@H]1CNC[C@H]3C1 [Varenicline Tartrate],inactive: 1.42
17,N#Cc1ccc(-c2c(-c3ncn[nH]3)sc(N3CCOCC3)c2C#N)c(F)c1,inactive: -1.54
18,c1ccc(C2CN3CCSC3=N2)cc1 (stereo not drawn) [Tetramisole HCl],inactive: 0.0708
19,C=C1c2cccc(O)c2C(=O)C2=C(O)[C@]3(O)C(=O)C(C(N)=O)=C(O)[C@@H](N(C)C)[C@@H]3[C@@H](O)[C@H]12 [Methacycline HCl],inactive: 1.12
20,Cn1c(=O)c2nc[nH]c2n(C)c1=O [Theophylline],inactive: -0.279
21,Cn1c(=O)cc(N2CCC[C@@H](N)C2)n(Cc2cc(F)ccc2C#N)c1=O [Trelagliptin],inactive: 1.44
22,CC(C)(C)c1[nH]cnc1/C=c1\[nH]c(=O)/c(=C/c2ccccc2)[nH]c1=O [Plinabulin (NPI-2358)],active: -3.49
23,Cc1c(-c2ccnn2C)cc(C(=O)NCc2ccc(S(C)(=O)=O)cn2)c(=O)n1-c1cccc(C(F)(F)F)c1 [Alvelestat (AZD9668)],inactive: 0.261

row,SMILES,nuclei number (z-score)
1,CCCCCCCCCCCCCCCCCCOP(=O)([O-])OC1CC[N+](C)(C)CC1 [Perifosine (KRX-0401)],inactive: -0.495
2,O=C(Nc1ccc(OC(F)(F)F)cc1)c1sccc1NCc1ccnc2ccccc12,inactive: 1.98
3,COc1cc(/C=C/C(=O)N2CCN(CC(=O)N3CCCC3)CC2)cc(OC)c1OC [Cinepazide maleate],inactive: 1.49
4,CC(COc1ccccc1)N(CCCl)Cc1ccccc1 (stereo not drawn) [Phenoxybenzamine HCl],inactive: -0.512
5,Nc1ncn([C@@H]2O[C@H](CO)[C@@H](O)[C@H]2O)c(=O)n1 [Azacitidine],inactive: 0.0965
6,CCCNC(C)C(=O)Nc1ccccc1C (stereo not drawn) [Prilocaine],inactive: -0.0436
7,COc1ccc(CN(CCN(C)C)c2ccccn2)cc1 [Pyrilamine Maleate],inactive: 0.924
8,CC(=O)Nc1cccc2c1c(Sc1ccc(Cl)cc1)c(C)n2CC(=O)O,inactive: 1.3
9,COc1cccc(-c2ccc(NC(=O)C3=C(C(=O)O)CCC3)c(F)c2)c1 [Vidofludimus],inactive: 0.0164
10,Clc1cccc(-c2nnnn2Cc2cccnc2)c1Cl,inactive: -0.0132
11,C/C=C1/[C@H](O[C@@H]2O[C@H](CO)[C@@H](O)[C@H](O)[C@H]2O)OC=C(C(=O)OC)[C@H]1CC(=O)OCCc1ccc(O)c(O)c1 [Oleuropein],inactive: -0.261
12,Cc1cc(=O)oc2cc(O)ccc12 [4-Methylumbelliferone (4-MU)],inactive: 1.49
13,O=C(NC1CCN(CCCCC2(C(=O)NCC(F)(F)F)c3ccccc3-c3ccccc32)CC1)c1ccccc1-c1ccc(C(F)(F)F)cc1 [Lomitapide Mesylate],active: -4.44
14,O=C(NC1CCN(CCCCC2(C(=O)NCC(F)(F)F)c3ccccc3-c3ccccc32)CC1)c1ccccc1-c1ccc(C(F)(F)F)cc1 [Lomitapide],active: -7.85
15,COc1ccc(C(=O)CC2(O)C(=O)Nc3c(Cl)ccc(Cl)c32)cc1 (stereo not drawn),inactive: -0.0853
16,CC(C)(C)Cn1c(N)nc2ccc(-c3[nH]c(C(C)(C)C)nc3-c3ccc(F)cc3)nc21,inactive: -0.432
17,CCCN[C@H]1CCc2nc(N)sc2C1 [Pramipexole 2HCl Monohydrate],inactive: 3.06
18,CCCN[C@H]1CCc2nc(N)sc2C1 [Pramipexole],inactive: 8.25
19,CCOC(=O)c1ccc(OC(=O)CCCCCNC(=N)N)cc1 [Gabexate Mesylate],inactive: -1.35
20,COC1=C(OC)C(=O)C(CCCCCCCCCCO)=C(C)C1=O [Idebenone],inactive: 0.326
21,CCOC(=O)[C@H](CCc1ccccc1)N[C@H]1CCc2ccccc2N(CC(=O)O)C1=O [Benazepril HCl],inactive: -0.271
22,Cn1cc(-c2ccc(F)c(C(F)(F)F)c2)nc1C1CCN(c2ncnc3[nH]ncc23)CC1,inactive: 0.654
